Source: PubChem BioAssay AID1460 (National Center for Advancing Translational Sciences (NCATS), 2008)
Screen size: about 270,000 compounds; about 5,800 (2.1%) were called active. The inconclusive results got no clear call from the source; some entries with a clear call stand among them for comparison. The call rests on the fitted dose curve; in most records, active means well fitted inhibition curve with a large enough effect; inconclusive means small, poorly fitted or top-dose-only effect; inactive means flat fitted curve, though single readings scatter. A potency beside an inconclusive call is a rough fit, not a confirmed value.

What follows are compounds tested against Microtubule-associated protein tau (Homo sapiens) (UniProt P10636) (assay: qHTS for Inhibitors of Tau Fibril Formation, Thioflavin T Binding). Conditions: recombinant tau K18 P301L, heparin-induced fibrillization, ThT fluorescence; series mostly up to 57.4 µM.
In short: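 Using a mix of unlabeled (15 uM) and Alexa 594-labeled (0.24 uM) tau K18 P301L, heparin-triggered fibrillization over 6 hr at 37 C was scored by ThT fluorescence.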
Further: nearly all actives have a fitted effect of over 55% in size.
On the % scale 0 is the no-effect control and ±100 the full control effect; potency means the concentration at half of the fitted maximal effect; tags describe the fitted curve by direction and shape.

UniProt P10636, sequence (P10636 whole entry, looked up): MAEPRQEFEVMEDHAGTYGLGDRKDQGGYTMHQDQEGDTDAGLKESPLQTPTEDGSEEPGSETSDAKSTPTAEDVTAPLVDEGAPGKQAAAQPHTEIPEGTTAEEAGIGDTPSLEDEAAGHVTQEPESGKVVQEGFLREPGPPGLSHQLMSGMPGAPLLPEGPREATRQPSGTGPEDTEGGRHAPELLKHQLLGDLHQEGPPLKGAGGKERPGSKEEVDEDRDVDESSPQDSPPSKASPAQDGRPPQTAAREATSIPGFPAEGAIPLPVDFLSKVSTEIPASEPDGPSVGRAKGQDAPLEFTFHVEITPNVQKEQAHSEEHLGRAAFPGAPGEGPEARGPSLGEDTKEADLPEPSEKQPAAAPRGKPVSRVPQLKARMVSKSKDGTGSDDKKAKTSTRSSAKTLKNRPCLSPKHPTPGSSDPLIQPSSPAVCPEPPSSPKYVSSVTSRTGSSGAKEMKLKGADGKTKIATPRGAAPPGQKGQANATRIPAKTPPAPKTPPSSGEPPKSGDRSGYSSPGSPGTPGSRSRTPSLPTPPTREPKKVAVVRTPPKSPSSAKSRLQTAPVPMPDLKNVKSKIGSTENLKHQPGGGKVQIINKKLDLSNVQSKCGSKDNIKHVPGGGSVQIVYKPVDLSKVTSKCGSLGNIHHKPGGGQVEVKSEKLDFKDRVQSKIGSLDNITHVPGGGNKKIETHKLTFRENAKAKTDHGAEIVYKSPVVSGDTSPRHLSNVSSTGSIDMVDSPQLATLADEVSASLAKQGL

Compound | Potency | activity, negative = inhibition
COc1ccc(C2CC(c3cccs3)=NN2S(C)(=O)=O)cc1 (centres undefined) | inactive | 
COc1ccccc1N1CCN(C(=O)CCCn2nc(C)c([N+](=O)[O-])c2C)CC1 | inconclusive: 22.4 µM [inhibitor, single point] | 
C/C(=N/NC(=O)c1cc(-c2cccc([N+](=O)[O-])c2)n[nH]1)c1ccc(Cl)cc1 | inconclusive: 2 µM [inhibitor, full curve] | 
COc1cc2cc(CN(Cc3cccs3)C(=S)Nc3ccccc3)c(=O)[nH]c2cc1OC | inconclusive: 39.8 µM [inhibitor, single point] | 
N#CC1=C(SCC(=O)c2ccc(Br)cc2)NC2=C(C(=O)CCC2)C1c1ccco1 (centres undefined) | active: 14.1 µM | 
CCOc1ccc2nc(NC(=O)CSc3ccc(Cl)cc3)sc2c1 | inconclusive: 5.62 µM [inhibitor, partial curve, poor fit] | 
CCCCOc1nc2ccccc2nc1C(C#N)C(=O)NC1CCCCC1 (centres undefined) | inconclusive: 2.51 µM [inhibitor, partial curve] | 
O=C1Nc2ccc(F)cc2C12SCCS2 | inconclusive: 12.6 µM [inhibitor, partial curve] | 
CCC/C=N/Nc1nc2ccccc2s1 | inconclusive: 22.4 µM [inhibitor, single point] | 
Cc1ccccc1Nc1scc(-c2ccc(Cl)cc2)[n+]1-c1ccccc1C | inconclusive: 15.8 µM [inhibitor, single point] | 
Cc1ccc2c(c1)COc1c3ccc(C(=O)N[C@@H](C)CO)cc3nn1-2 | inactive | 
O=C1CC(c2ccc(Br)cc2)c2c(ccc3ccccc23)N1 (centres undefined) | inconclusive: 5.01 µM [inhibitor, single point] | 
Cc1nnc(SCC(=O)NCc2ccc3c(c2)OCO3)[nH]c1=O | inactive | 
COc1ccc(OCCCC(=O)NCCc2ccc(OC)c(OC)c2)cc1 | inconclusive: 17.8 µM [inhibitor, single point] | 
COC(=O)c1c(Oc2ccc(Br)cc2)nnc(-c2ccccc2)c1-c1ccccc1 | inactive | 
CSc1nnc(CSCc2ccc(Cl)cc2Cl)n1-c1ccccc1 | inconclusive: 39.8 µM [inhibitor, single point] | 
Cc1c(Cl)cccc1NC(=O)Cn1c(=O)n(Cc2ccco2)c(=O)c2oc3ccccc3c21 | inactive | 
Cc1sc2nc(CN3CCOCC3)nc(NS(=O)(=O)c3ccccc3)c2c1C | inactive | 
O=c1cc(/C=C/c2cccs2)[nH]c2ccccc12 | inconclusive: 35.5 µM [inhibitor, partial curve] | 
CC(C)N(Cc1ccccc1)C(=S)Nc1ccc(F)cc1 | inactive | 
O=C(NCCc1ccccc1)C(=O)NC1CCCCC1 | inactive | 
CCN1CCN(C(=O)c2cc(COc3ccc4ncccc4c3)on2)CC1 | inconclusive: 20 µM [inhibitor, single point] | 
COc1ccc(-c2nc3sc(CCNC(=O)C(=O)Nc4ccccc4C#N)c(C)n3n2)cc1 | inconclusive: 3.55 µM [inhibitor, partial curve] | 

Compound | Potency | activity, negative = inhibition
Cc1ccc(CNCC(=O)Nc2cccc(S(=O)(=O)NC3=NCCCCC3)c2)cc1 | inactive | 
CCCCCSc1nnc2c(n1)OC(c1cccn1C)N(C(C)=O)c1ccccc1-2 (centres undefined) | inconclusive: 20 µM [inhibitor, partial curve] | 
COC(=O)C1CCN(C(=O)COC(=O)c2ccc(OC)c(S(=O)(=O)N3CCCc4ccccc43)c2)CC1 | inactive | 
CCC1C/C(=C/c2cccs2)C(=O)/C(=C/c2cccs2)C1 (centres undefined) | inconclusive: 10 µM [inhibitor, partial curve] | 
CCOc1ccc(CNC(=O)c2cc3ccccn3n2)cc1 | inactive | 
S=C1NC2(CCCCC2)NN1c1ccccc1 | inconclusive: 22.4 µM [inhibitor, single point] | 
COc1cccc(-n2c(=O)c3c(C)c(C)sc3n(Cc3ccccc3C#N)c2=O)c1 | inactive | 
COC(=O)[C@@]1(C)CCC[C@@]2(C)c3ccc(O)c(C(C)C)c3CCC21 (some centres undefined) | inconclusive: 20 µM [inhibitor, partial curve, poor fit] | 
O=[N+]([O-])c1nn(-c2ccccc2)n(O)c1=NCCc1ccccc1 | inconclusive: 14.1 µM [inhibitor, partial curve] | 
CCCc1cc(=O)[nH]c(SCC(=O)N2CCN(S(=O)(=O)c3ccc(C)cc3)C2)n1 | inactive | 
C=CCOc1cccc(/C=C2\C(=O)N(Cc3ccc(C)cc3)C(C)=C2C(=O)OC)c1 | inconclusive: 25.1 µM [inhibitor, partial curve] | 
CCOC(=O)c1ccc(NC(=O)CSc2nnc(COc3ccccc3OC)n2CC)cc1 | inconclusive: 0.794 µM [inhibitor, full curve, poor fit] | 
Cc1ccc(CNC(=O)c2c(Nc3c(C)cccc3C)sc(C(=O)c3ccccc3)c2N)cc1 | inconclusive: 20 µM [inhibitor, partial curve, poor fit] | 
N/C(=N\OC(=O)c1ccc2c(c1)OCO2)c1cccc(Br)c1 | inconclusive: 7.94 µM [inhibitor, single point] | 
O=C(Nc1nc2ccc([N+](=O)[O-])cc2s1)c1c(F)cccc1F | inconclusive: 31.6 µM [inhibitor, single point] | 
COC(=O)C/C=C\[C@@H](C)[C@@H](/C=N\OC[C@@H](O)[C@H]1O[C@H]2OC(C)(C)O[C@H]2[C@@H]1O)NS(=O)(=O)c1ccc(C)cc1 |  | inactive: -2.49% [at 11.5 µM]
CC(C)c1cc(-c2nc(-c3ccc(Cl)cc3)no2)n[nH]1 | inconclusive: 14.1 µM [inhibitor, partial curve] | 
O=[N+]([O-])c1ccc(-c2cnc(SCc3ccccc3Cl)[nH]2)cc1 | active: 14.1 µM | 
CCc1cnc2c(c1SC(C(C)=O)C(=O)N(C)C)c(=O)n(C)c(=O)n2C (centres undefined) | inactive | 
O=C(Cn1cnc2c(nnn2Cc2ccccc2)c1=O)N1CCN(c2ccccc2)CC1 | inconclusive: 25.1 µM [inhibitor, single point] | 
COc1ccc(CCNC(=O)c2ccc(Cn3c(SCc4ccccc4)nc4cccnc43)cc2)cc1 | inactive | 
COc1cc(NC(=O)c2nn(C)c3c2COc2ccccc2-3)cc(OC)c1OC | inactive | 
CC(C)(C)c1cc[n+](C2=C([O-])c3ccccc3C(=O)/C2=N\S(=O)(=O)c2cccs2)cc1 | active: 17.8 µM | 

Compound | Potency | activity, negative = inhibition
Cc1ccc(C(=O)N(Cc2ccco2)c2ccccn2)cc1 | inconclusive: 8.91 µM [activator, single point] | 
C/C(CC(=O)Nc1ccc(N(C)C)cc1)=N\NC(=O)c1ccncc1 | inconclusive: 15.8 µM [inhibitor, partial curve] | 
Nc1c(C(=O)OCC2CCCO2)c2nc3ccccc3nc2n1C1CCCC1 (centres undefined) | inconclusive: 39.8 µM [inhibitor, single point] | 
Cc1ccc(CNC(=O)c2c(Nc3ccccc3C)sc(C(=O)c3ccc(F)cc3)c2N)cc1 | inconclusive: 12.6 µM [inhibitor, partial curve] | 
O=C(CSc1nnc(-c2ccco2)c(-c2ccco2)n1)c1ccccc1 | inactive | 
Cc1nnc(NC(=O)c2ccccc2NC(=O)c2ccccc2)s1 | inactive | 
COc1ccc(-c2csc(/C(C#N)=C\c3ccc(OC)c([N+](=O)[O-])c3)n2)cc1 | inconclusive: 2.51 µM [inhibitor, full curve] | 
COc1ccccc1Nc1c2c(nc3ccc(NC(=O)c4ccc(N(C)C)cc4)cc13)CCCC2 | active: 15.8 µM | 
O=C(CSc1cccc[n+]1[O-])Nc1ccc(N2CCOCC2)cc1 | inconclusive: 15.8 µM [inhibitor, partial curve] | 
CCOc1ccc(/C=C/C(=O)Nc2ccc(N3CCOCC3)cc2)cc1 | inconclusive: 1.12 µM [inhibitor, full curve] | 
CSc1ccc(CCNC(=O)c2csc3c2CCCCC3)cc1 | inactive | 
CCCc1[nH]nc2c1C(c1cccc(OC)c1)C(C#N)=C(N)O2 (centres undefined) | inactive | 
CC(=O)c1cccc(NC(=O)c2cc3ccccn3n2)c1 | inconclusive: 17.8 µM [inhibitor, partial curve, poor fit] | 
O=C(c1noc2c1CCc1ccccc1-2)N1CCCc2ccccc21 | inconclusive: 20 µM [inhibitor, partial curve] | 
C=CCN(C(=O)CSC1=NC(=O)CN1C(C)=O)c1nc(C)c(-c2ccccc2)s1 | inconclusive: 20 µM [inhibitor, partial curve] | 
N/C(=N\OC(=O)N1c2ccccc2Sc2ccccc21)c1ccc(Br)cc1 | inconclusive: 15.8 µM [inhibitor, partial curve] | 
CN1C=CC2=C(C#N)C(N)C(C#N)(C#N)[C@H](c3ccccc3)[C@H]2C1 (some centres undefined) | inconclusive: 28.2 µM [inhibitor, partial curve] | 
CCN(CC)c1ccc2c(c1)CCCN2 | active: 25.1 µM | 
C=CCn1c2ccccc2c2nnc(SCN3C(=O)c4ccccc4C3=O)nc21 | inconclusive: 25.1 µM [inhibitor, partial curve] | 
CN(C)c1ccc(CNC(=O)c2ccc3nc(Cc4ccccc4)oc3c2)cc1 | inconclusive: 0.0251 µM [inhibitor, full curve, poor fit] | 
CC(=O)NC(NC(=S)Nc1ccc(N=Nc2ccccc2C)cc1C)C(Cl)(Cl)Cl (centres undefined) | inconclusive: 11.2 µM [inhibitor, partial curve] | 
Cc1ccc(OCc2nnc(SCC(=O)Nc3cccc4ccccc34)n2-c2ccccc2)cc1 | inactive | 
COc1ccc(/C=C/C(O)=C2/C(=O)NC3(C)CC2c2ccccc2O3)c(OC)c1OC (centres undefined) | inconclusive: 12.6 µM [inhibitor, partial curve] | 
